Experimental data as given in patent US20250361299A1 (published 2025).
Blank lines part the entries; values can stand above or below the binder they belong to.

Experiments:
[1] = biological target: T1, Human CD3 protein (human, UniProt P07766 23-126); test: ELISA; without uPA
T1 chain: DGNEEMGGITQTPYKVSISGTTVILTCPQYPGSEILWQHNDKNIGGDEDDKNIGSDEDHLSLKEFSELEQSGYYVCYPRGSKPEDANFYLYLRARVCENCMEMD

[2] = biological target: T1, Human CD3 protein; test: ELISA; with uPA

EC50 [1]: 25.2 µg/mL
B1: 1.2 proBiTE (bispecific antibody)
heavy: QDGNEEMGGITQTPYGGGSGGGSGGGSGLSGRSDNHGGSEVQLVESGGGLVQPGGSLRLSCAASGFTFNTYAMNWVRQAPGKGLEWVARIRSKYNNYATYYADSVKGRFTISRDDSKNTLYLQMNSLRAEDTAVYYCARHGNFGSSYVSYFAYWGQGTTVTVSSGGGSSGGGGSGGGGSEVQLVETGGGVVQPGRSLRLSCAASGFTFSSYAMHWVRQAPGKGLEWVAVISYDGSNKYYADSVKGRFTISRDNSKNTLYLQMNSLRAEDTAVYYCARGYVARGDFDYWGQGTLVTVSSASTKGPSVFPLAPSSKSTSGGTAALGCLVKDYFPEPVTVSWNSGALTSGVHTFPAVLQSSGLYSLSSVVTVPSSSLGTQTYICNVNHKPSNTKVDKKVEPKS[human IgG1 Fc with T366L Y407H (EU numbers) cut from this listing]
light: EIVVTQSPATLSVSPGERATLSCRSSTGAVTTSNYANWVQQKPGQAPRGLIGGANKRAPGVPARFSGSLSGDEATLTISSLQSEDFAVYYCALWYSNLWVFGQGTKLEIKGGGGSGGGGSGGGGSDVVMTQSPSTLSASVGDRVTITCRASQSMSRWLAWYQQKPGKGPKLLIYATSTLQSGVPSRFSGSGSGTEFTLTISSLQPEDFATYYCQQLDSFPFSFTFGPGTKVDLKRTVAAPSVFIFPPSDEQLKSGTASVVCLLNNFYPREAKVQWKVDNALQSGNSQESVTEQDSKDSTYSLSSTLTLSKADYEKHKVYACEVTHQGLSSPVTKSFNRGE[human IgG1 Fc with T366L Y407H (EU numbers) cut from this listing]

EC50 [2]: 0.591 µg/mL
B2: 1.2 proBiTE after uPA digestion (bispecific antibody)
heavy: SDNHGGSEVQLVESGGGLVQPGGSLRLSCAASGFTFNTYAMNWVRQAPGKGLEWVARIRSKYNNYATYYADSVKGRFTISRDDSKNTLYLQMNSLRAEDTAVYYCARHGNFGSSYVSYFAYWGQGTTVTVSSGGGSSGGGGSGGGGSEVQLVETGGGVVQPGRSLRLSCAASGFTFSSYAMHWVRQAPGKGLEWVAVISYDGSNKYYADSVKGRFTISRDNSKNTLYLQMNSLRAEDTAVYYCARGYVARGDFDYWGQGTLVTVSSASTKGPSVFPLAPSSKSTSGGTAALGCLVKDYFPEPVTVSWNSGALTSGVHTFPAVLQSSGLYSLSSVVTVPSSSLGTQTYICNVNHKPSNTKVDKKVEPKS[human IgG1 Fc with T366L Y407H (EU numbers) cut from this listing]
light: B1 light

EC50 [2]: 0.73 µg/mL
B3: 1.4 proBiTE after uPA digestion (bispecific antibody)
heavy: B2 heavy
light: B1 light

EC50 [1]: 47 µg/mL
B4: 1.4.1 proBiTE (bispecific antibody)
heavy: QDGNEEMGGGSQDGNEEMGGITQTPYGGGSGGGSGGGSGLSGRSDNHGGSEVQLVESGGGLVQPGGSLRLSCAASGFTFNTYAMNWVRQAPGKGLEWVARIRSKYNNYATYYADSVKGRFTISRDDSKNTLYLQMNSLRAEDTAVYYCARHGNFGSSYVSYFAYWGQGTTVTVSSGGGSSGGGGSGGGGSEVQLVETGGGVVQPGRSLRLSCAASGFTFSSYAMHWVRQAPGKGLEWVAVISYDGSNKYYADSVKGRFTISRDNSKNTLYLQMNSLRAEDTAVYYCARGYVARGDFDYWGQGTLVTVSSASTKGPSVFPLAPSSKSTSGGTAALGCLVKDYFPEPVTVSWNSGALTSGVHTFPAVLQSSGLYSLSSVVTVPSSSLGTQTYICNVNHKPSNTKVDKKVEPKS[human IgG1 Fc with T366L Y407H (EU numbers) cut from this listing]
light: B1 light

EC50 [1]: 50.1 µg/mL
B5: 1.5 proBiTE (bispecific antibody)
heavy: B1 heavy
light: QDGNEEMGGITQTPYGGGSGGGSGGGSGLSGRSDNHGGSEIVVTQSPATLSVSPGERATLSCRSSTGAVTTSNYANWVQQKPGQAPRGLIGGANKRAPGVPARFSGSLSGDEATLTISSLQSEDFAVYYCALWYSNLWVFGQGTKLEIKGGGGSGGGGSGGGGSDVVMTQSPSTLSASVGDRVTITCRASQSMSRWLAWYQQKPGKGPKLLIYATSTLQSGVPSRFSGSGSGTEFTLTISSLQPEDFATYYCQQLDSFPFSFTFGPGTKVDLKRTVAAPSVFIFPPSDEQLKSGTASVVCLLNNFYPREAKVQWKVDNALQSGNSQESVTEQDSKDSTYSLSSTLTLSKADYEKHKVYACEVTHQGLSSPVTKSFNRGE[human IgG1 Fc with T366L Y407H (EU numbers) cut from this listing]

EC50 [1]: 24.4 µg/mL
B6: 1.3 proBiTE (bispecific antibody)
heavy: QDGNEEMGGITQTPYKVSISGTGGGSGGGSGGGSGLSGRSDNHGGSEVQLVESGGGLVQPGGSLRLSCAASGFTFNTYAMNWVRQAPGKGLEWVARIRSKYNNYATYYADSVKGRFTISRDDSKNTLYLQMNSLRAEDTAVYYCARHGNFGSSYVSYFAYWGQGTTVTVSSGGGSSGGGGSGGGGSEVQLVETGGGVVQPGRSLRLSCAASGFTFSSYAMHWVRQAPGKGLEWVAVISYDGSNKYYADSVKGRFTISRDNSKNTLYLQMNSLRAEDTAVYYCARGYVARGDFDYWGQGTLVTVSSASTKGPSVFPLAPSSKSTSGGTAALGCLVKDYFPEPVTVSWNSGALTSGVHTFPAVLQSSGLYSLSSVVTVPSSSLGTQTYICNVNHKPSNTKVDKKVEPKS[human IgG1 Fc with T366L Y407H (EU numbers) cut from this listing]
light: B1 light

EC50 [2]: 6.78 µg/mL
B7: 1.5 proBiTE after uPA digestion (bispecific antibody)
heavy: B1 heavy
light: B5 light

EC50 [2]: 1.09 µg/mL
B8: 1.4.1 proBiTE after uPA digestion (bispecific antibody)
heavy: B2 heavy
light: B1 light

EC50 [2]: 0.608 µg/mL
B9: 1.1 proBiTE after uPA digestion (bispecific antibody)
heavy: B2 heavy
light: B1 light

EC50 [1]: 48.8 µg/mL
B10: 1.4 proBiTE (bispecific antibody)
heavy: QDGNEEMGGIGGGSQDGNEEMGGGGGSGGGSGGGSGLSGRSDNHGGSEVQLVESGGGLVQPGGSLRLSCAASGFTFNTYAMNWVRQAPGKGLEWVARIRSKYNNYATYYADSVKGRFTISRDDSKNTLYLQMNSLRAEDTAVYYCARHGNFGSSYVSYFAYWGQGTTVTVSSGGGSSGGGGSGGGGSEVQLVETGGGVVQPGRSLRLSCAASGFTFSSYAMHWVRQAPGKGLEWVAVISYDGSNKYYADSVKGRFTISRDNSKNTLYLQMNSLRAEDTAVYYCARGYVARGDFDYWGQGTLVTVSSASTKGPSVFPLAPSSKSTSGGTAALGCLVKDYFPEPVTVSWNSGALTSGVHTFPAVLQSSGLYSLSSVVTVPSSSLGTQTYICNVNHKPSNTKVDKKVEPKS[human IgG1 Fc with T366L Y407H (EU numbers) cut from this listing]
light: B1 light

EC50 [1]: 25.5 µg/mL
B11: 1.1 proBiTE (bispecific antibody)
heavy: QDGNEEMGGIGGGSGGGSGGGSGLSGRSDNHGGSEVQLVESGGGLVQPGGSLRLSCAASGFTFNTYAMNWVRQAPGKGLEWVARIRSKYNNYATYYADSVKGRFTISRDDSKNTLYLQMNSLRAEDTAVYYCARHGNFGSSYVSYFAYWGQGTTVTVSSGGGSSGGGGSGGGGSEVQLVETGGGVVQPGRSLRLSCAASGFTFSSYAMHWVRQAPGKGLEWVAVISYDGSNKYYADSVKGRFTISRDNSKNTLYLQMNSLRAEDTAVYYCARGYVARGDFDYWGQGTLVTVSSASTKGPSVFPLAPSSKSTSGGTAALGCLVKDYFPEPVTVSWNSGALTSGVHTFPAVLQSSGLYSLSSVVTVPSSSLGTQTYICNVNHKPSNTKVDKKVEPKS[human IgG1 Fc with T366L Y407H (EU numbers) cut from this listing]
light: B1 light
